The list shows a part of the results. Interaction screen of human proteins with wild-type SARS-CoV-2 proteins by split-DHFR complementation in yeast, 1 µg/mL methotrexate. Value = fitness of the pair (three or more lineages) minus that of the viral protein without a human partner, on a scale set by negative (0) and fused positive (1) controls, mean of up to three cultures; higher = more likely to interact. Active = false discovery rate below 0.05 (one-sided t-test) in at least one culture. Nearly all pairs are not hits, and differences among them are mostly noise (correlation between cultures about 0.3); most hits were seen in one culture only. Human sequences are the Swiss-Prot entries looked up by gene name; the clone may be another isoform. NSP2 values were corrected by the authors for a growth advantage. Listed are human proteins with a hit and a random twelfth of the others.
Legend:
Assay in all cases: yeast fitness gain over the viral ORF with no human partner (scaled fitness); higher = more likely to interact
SARS-CoV-2 E = biological target: SARS-CoV-2 E
Method: (§1)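 Split mouse DHFR complementation in pooled diploid yeast: human ORFeome clones carry one fragment and viral ORFs the other; barcoded lineages compete in 1 µg/mL methotrexate and fitness is read by barcode sequencing in up to three cultures.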

SARS-CoV-2 M = biological target: SARS-CoV-2 M
Method: as §1

SARS-CoV-2 N = biological target: SARS-CoV-2 N
Method: as §1

SARS-CoV-2 NSP1 = biological target: SARS-CoV-2 NSP1
Method: as §1

SARS-CoV-2 NSP10 = biological target: SARS-CoV-2 NSP10
Method: as §1

SARS-CoV-2 NSP12 = biological target: SARS-CoV-2 NSP12
Method: as §1

SARS-CoV-2 NSP13 = biological target: SARS-CoV-2 NSP13
Method: as §1

SARS-CoV-2 NSP14 = biological target: SARS-CoV-2 NSP14
Method: as §1

SARS-CoV-2 NSP16 = biological target: SARS-CoV-2 NSP16
Method: as §1

SARS-CoV-2 NSP2 = biological target: SARS-CoV-2 NSP2
Method: as §1

SARS-CoV-2 NSP5 = biological target: SARS-CoV-2 NSP5
Method: as §1

SARS-CoV-2 NSP6 = biological target: SARS-CoV-2 NSP6
Method: as §1

SARS-CoV-2 NSP7 = biological target: SARS-CoV-2 NSP7
Method: as §1

SARS-CoV-2 NSP8 = biological target: SARS-CoV-2 NSP8
Method: as §1

SARS-CoV-2 ORF10 = biological target: SARS-CoV-2 ORF10
Method: as §1

SARS-CoV-2 ORF3B = biological target: SARS-CoV-2 ORF3B
Method: as §1

SARS-CoV-2 ORF6 = biological target: SARS-CoV-2 ORF6
Method: as §1

SARS-CoV-2 ORF7B = biological target: SARS-CoV-2 ORF7B
Method: as §1

SARS-CoV-2 ORF8 = biological target: SARS-CoV-2 ORF8
Method: as §1

SARS-CoV-2 ORF9B = biological target: SARS-CoV-2 ORF9B
Method: as §1

[1] = biological target: SARS-CoV-2 ORF9Bwu (the 73-codon ORF)
Method: as §1

SARS-CoV-2 S = biological target: SARS-CoV-2 S
Method: as §1

SARS-CoV-2 NSP15 = biological target: SARS-CoV-2 NSP15
Method: as §1

SARS-CoV-2 NSP4 = biological target: SARS-CoV-2 NSP4
Method: as §1

SARS-CoV-2 ORF3A = biological target: SARS-CoV-2 ORF3A
Method: as §1

SARS-CoV-2 ORF7A = biological target: SARS-CoV-2 ORF7A
Method: as §1

SARS-CoV-2 NSP9 = biological target: SARS-CoV-2 NSP9
Method: as §1

Measured: yeast fitness gain

B1: ZNF843, Q8N446 (protein)
chain: MRSLPFALTVESVSARAPTCCSTGRFTQGRQPCKCKACGRGFTQSASLLQHWRVHSDWRETLSLSPVRQDLLWPLQPHQAPASPLGRSHSSAGVRQGFSGQLCCWLTKEHTLAEALRLSPVPAGFWGPVEADRPPANSHRRVCPFCCCSCGDSVNEKTSLSQRVLPHPGEKTCRGGSVESVSLAPSSVAPDSTSGLRPCGSPGSFLQHLPPSTLLPRPPFLYPGPPLSLQPLVPSGLPAVPAVPLGGLEVAQVPPATQPAAQQEGAMGPRSCASAGRDSREAVQAPGYPEPARKASQHRAAGPLGEARARLQRQCRAPPPPSNPHWRGALPVFPVWKASSRRSNLARH
inactive: SARS-CoV-2 E -0.0191 | SARS-CoV-2 M 0.106 | SARS-CoV-2 N 0.192 | SARS-CoV-2 NSP1 = 0.0739 | SARS-CoV-2 NSP10 = -0.0105 | SARS-CoV-2 NSP12 = 0.0538 | SARS-CoV-2 NSP13 = 0.00731 | SARS-CoV-2 NSP14 = -0.00991 | SARS-CoV-2 NSP16 = 0.0288 | SARS-CoV-2 NSP2 = -0.0975 | SARS-CoV-2 NSP5 = 0.0525 | SARS-CoV-2 NSP6 = 0.109 | SARS-CoV-2 NSP7 = 0.0454 | SARS-CoV-2 NSP8 = -0.0644 | SARS-CoV-2 ORF10 = -0.0676 | SARS-CoV-2 ORF3B -0.0047 | SARS-CoV-2 ORF6 = 0.0198 | SARS-CoV-2 ORF7B -0.0614 | SARS-CoV-2 ORF8 = -0.0312 | SARS-CoV-2 ORF9B -0.0835 | [1] -0.125 | SARS-CoV-2 S -0.0913

B2: ASTE1, Q2TB18 (protein)
chain: MGIRGLMSFVEDHSNEFFTDLKLRDTKIVIDGYALFHRLCFSSNLDLRYGGDYDSFADVVQKFFESLFACNICPYVVLDGGCDISDKKLTTLKDRAREKIQMAHSLSVGGSGYVCPLLIREVFIQVLIKLRVCFVQCFSEADRDIMTLANHWNCPVLSSDSDFCIFDLKTGFCPLNSFQWRNMNTIKGTQNYIPAKCFSLDAFCHHFSNMNKALLPLFAVLCGNDHVNLPIMETFLSKARLPLGATSSKGRRHHRILGLLNWLSHFANPTEALDNVLKYLPKKDRENVKELLCCSMEEYQQSQVKLQDFFQCGTYVCPDALNLGLPEWVLVALAKGQLSPFISDALVLRRTILPTQVENMQQPNAHRISQPIRQIIYGLLLNASPHLDKTSWNALPPQPLAFSEVERINKNIRTSIIDAVELAKDHSDLSRLTELSLRRRQMLLLETLKVKQTILEPIPTSLKLPIAVSCYWLQHTETKAKLHHLQSLLLTMLVGPLIAIINSPGKEELQEDGAKMLYAEFQRVKAQTRLGTRLDLDTAHIFCQWQSCLQMGMYLNQLLSTPLPEPDLTRLYSGSLVHGLCQQLLASTSVESLLSICPEAKQLYEYLFNATRSYAPAEIFLPKGRSNSKKKRQKKQNTSCSKNRGRTTAHTKCWYEGNNRFGLLMVENLEEHSEASNIE
inactive: SARS-CoV-2 E 0.0397 | SARS-CoV-2 M 0.0996 | SARS-CoV-2 N -0.0472 | SARS-CoV-2 NSP1 = -0.0334 | SARS-CoV-2 NSP10 = 0.0245 | SARS-CoV-2 NSP12 = 0.00067 | SARS-CoV-2 NSP13 = 0.0517 | SARS-CoV-2 NSP14 = 0.0607 | SARS-CoV-2 NSP15 = 0.0575 | SARS-CoV-2 NSP16 = -0.0176 | SARS-CoV-2 NSP2 = -0.0951 | SARS-CoV-2 NSP4 = -0.259 | SARS-CoV-2 NSP5 = 0.0108 | SARS-CoV-2 NSP6 = -0.0369 | SARS-CoV-2 NSP7 = -0.046 | SARS-CoV-2 NSP8 = -0.00586 | SARS-CoV-2 ORF10 = 0.0131 | SARS-CoV-2 ORF3A 0.00613 | SARS-CoV-2 ORF3B 0.0141 | SARS-CoV-2 ORF6 = -0.0229 | SARS-CoV-2 ORF7A -0.0267 | SARS-CoV-2 ORF7B -0.013 | SARS-CoV-2 ORF8 = 0.00581 | SARS-CoV-2 ORF9B 0.0547 | SARS-CoV-2 S 0.0205

B3: PDHA1, P08559 (protein)
chain: MRKMLAAVSRVLSGASQKPASRVLVASRNFANDATFEIKKCDLHRLEEGPPVTTVLTREDGLKYYRMMQTVRRMELKADQLYKQKIIRGFCHLCDGQEACCVGLEAGINPTDHLITAYRAHGFTFTRGLSVREILAELTGRKGGCAKGKGGSMHMYAKNFYGGNGIVGAQVPLGAGIALACKYNGKDEVCLTLYGDGAANQGQIFEAYNMAALWKLPCIFICENNRYGMGTSVERAAASTDYYKRGDFIPGLRVDGMDILCVREATRFAAAYCRSGKGPILMELQTYRYHGHSMSDPGVSYRTREEIQEVRSKSDPIMLLKDRMVNSNLASVEELKEIDVEVRKEIEDAAQFATADPEPPLEELGYHIYSSDPPFEVRGANQWIKFKSVS
inactive: SARS-CoV-2 E 0.0204 | SARS-CoV-2 M -0.00527 | SARS-CoV-2 N -0.0462 | SARS-CoV-2 NSP10 = 0.0725 | SARS-CoV-2 NSP12 = 0.00732 | SARS-CoV-2 NSP13 = -0.0202 | SARS-CoV-2 NSP15 = 0.0343 | SARS-CoV-2 NSP16 = 0.0124 | SARS-CoV-2 NSP2 = -0.101 | SARS-CoV-2 NSP5 = -0.015 | SARS-CoV-2 NSP6 = 0.00418 | SARS-CoV-2 NSP7 = 0.0694 | SARS-CoV-2 NSP8 = -0.249 | SARS-CoV-2 NSP9 = -0.0481 | SARS-CoV-2 ORF10 = 0.00746 | SARS-CoV-2 ORF3A -0.00571 | SARS-CoV-2 ORF3B 0.0327 | SARS-CoV-2 ORF6 = 0.0391 | SARS-CoV-2 ORF7A 0.0408 | SARS-CoV-2 ORF7B -0.0334 | SARS-CoV-2 ORF8 = 0.0314 | SARS-CoV-2 ORF9B -0.0459 | [1] 0.0207 | SARS-CoV-2 S -0.0631

B4: RSAD2, Q8WXG1 (protein)
chain: MWVLTPAAFAGKLLSVFRQPLSSLWRSLVPLFCWLRATFWLLATKRRKQQLVLRGPDETKEEEEDPPLPTTPTSVNYHFTRQCNYKCGFCFHTAKTSFVLPLEEAKRGLLLLKEAGMEKINFSGGEPFLQDRGEYLGKLVRFCKVELRLPSVSIVSNGSLIRERWFQNYGEYLDILAISCDSFDEEVNVLIGRGQGKKNHVENLQKLRRWCRDYRVAFKINSVINRFNVEEDMTEQIKALNPVRWKVFQCLLIEGENCGEDALREAERFVIGDEEFERFLERHKEVSCLVPESNQKMKDSYLILDEYMRFLNCRKGRKDPSKSILDVGVEEAIKFSGFDEKMFLKRGGKYIWSKADLKLDW
inactive: SARS-CoV-2 E 0.00709 | SARS-CoV-2 NSP1 = 0.0793 | SARS-CoV-2 NSP10 = 0.0394 | SARS-CoV-2 NSP12 = -0.0898 | SARS-CoV-2 NSP13 = -0.103 | SARS-CoV-2 NSP16 = -0.0702 | SARS-CoV-2 NSP2 = 0.123 | SARS-CoV-2 NSP5 = -0.0416 | SARS-CoV-2 NSP6 = -0.01 | SARS-CoV-2 NSP7 = 0.134 | SARS-CoV-2 NSP8 = 0.019 | SARS-CoV-2 ORF10 = -0.035 | SARS-CoV-2 ORF3A -0.0411 | SARS-CoV-2 ORF3B -0.00474 | SARS-CoV-2 ORF6 = -0.0267 | SARS-CoV-2 ORF7A 0.0112 | SARS-CoV-2 ORF7B -0.0694 | SARS-CoV-2 ORF8 = -0.125 | SARS-CoV-2 ORF9B 0.0217 | [1] 0.0878 | SARS-CoV-2 S -0.0307
